The list shows a part of the results. These are enrichments in a pooled selection; single values are uncertain.
T1: EPS15_EH__P42566_121_215
T1 chain: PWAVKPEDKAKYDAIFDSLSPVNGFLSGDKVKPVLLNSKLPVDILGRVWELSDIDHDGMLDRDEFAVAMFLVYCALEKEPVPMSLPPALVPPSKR

T2: EPHA3_Pkinase__P29320_606_947
T2 chain: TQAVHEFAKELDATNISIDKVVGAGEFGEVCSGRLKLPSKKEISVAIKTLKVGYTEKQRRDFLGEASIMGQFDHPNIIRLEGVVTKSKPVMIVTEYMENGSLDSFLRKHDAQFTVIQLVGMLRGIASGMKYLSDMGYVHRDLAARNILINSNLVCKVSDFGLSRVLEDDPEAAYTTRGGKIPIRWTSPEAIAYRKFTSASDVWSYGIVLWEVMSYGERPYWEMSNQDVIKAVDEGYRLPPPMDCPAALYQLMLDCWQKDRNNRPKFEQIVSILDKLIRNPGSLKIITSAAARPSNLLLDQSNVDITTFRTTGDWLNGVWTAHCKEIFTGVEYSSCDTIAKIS

T3: EPHB2_Pkinase__P29323_604_898
T3 chain: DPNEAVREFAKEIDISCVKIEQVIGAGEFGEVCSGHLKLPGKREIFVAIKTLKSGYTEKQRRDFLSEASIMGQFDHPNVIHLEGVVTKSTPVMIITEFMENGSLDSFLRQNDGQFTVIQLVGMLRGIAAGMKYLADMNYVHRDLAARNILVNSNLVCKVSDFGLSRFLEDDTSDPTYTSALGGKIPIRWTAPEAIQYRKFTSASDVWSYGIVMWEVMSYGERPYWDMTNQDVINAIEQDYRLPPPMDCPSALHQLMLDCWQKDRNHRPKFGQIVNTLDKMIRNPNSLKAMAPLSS

T4: DOK1_PTB__Q99704_151_256
T4 chain: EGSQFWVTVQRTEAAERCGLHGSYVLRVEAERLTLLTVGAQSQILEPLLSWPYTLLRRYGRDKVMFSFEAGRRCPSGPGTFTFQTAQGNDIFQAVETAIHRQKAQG

T5: EIF3B_RRM__P55884_172_274
T5 chain: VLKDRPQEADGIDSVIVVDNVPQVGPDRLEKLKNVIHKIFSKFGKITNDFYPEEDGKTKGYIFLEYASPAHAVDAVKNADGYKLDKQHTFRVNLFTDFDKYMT

T6: IRS2_PTB__Q9Y4H2_188_304
T6 chain: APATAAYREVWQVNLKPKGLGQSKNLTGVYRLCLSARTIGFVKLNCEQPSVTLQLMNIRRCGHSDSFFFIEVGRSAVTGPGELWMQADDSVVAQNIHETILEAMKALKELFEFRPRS


Target: T1, EPS15_EH__P42566_121_215
Assay: mean normalised NGS count of phage-displayed peptide after selection on bait (% of reads); baits are purified protein domains named by gene / domain / UniProt id / residues; peptides come from disordered regions of human proteins; higher = stronger enrichment / binding
Details: replicate selections in which the peptide was seen: 2

| Binder | mean normalised NGS count |
| --- | --- |
| SEQNPFLFQEGKLFEM [ANK2 3096-3111 wt] | 2.8 |
| SHEWRAFLQAILEHEE [SMARCA4 1210-1225 mut P51531.R1213W] | 1.55 |
| DFFLQSLYSLTGLDAG [SLC26A1 552-567 wt] | 0.94 |
| SHEWRAFLQAILEHEE [SMARCA2 1210-1225 mut P51531.R1213W] | 1.55 |

Target: T2, EPHA3_Pkinase__P29320_606_947
Assay: as above
Details: replicate selections in which the peptide was seen: 3

| Binder | mean normalised NGS count |
| --- | --- |
| WLSHYWIPKWINATDP [ASNS 532-547 mut P08243.M538I] | 0.51 |
| TVAKLVEAHTNFGFQP [SCNN1B 577-592 mut P51168.E580K] | 0.873 |

Target: T3, EPHB2_Pkinase__P29323_604_898
Assay: as above
Details: replicate selections in which the peptide was seen: 3

| Binder | mean normalised NGS count |
| --- | --- |
| WLSHYWIPKWINATDP [ASNS 532-547 mut P08243.M538I] | 9.77 |
| LLQTMLITDTTNLSAL [HNF1A 518-533 mut P20823.P519L] | 0.0583 |
| YTDAPFPKWMHWALIA [ELOVL4 238-253 wt] | 0.0726 |
| EVARKLVIIDSDLERA [TPM1 164-179 mut P09493.E173D] | 0.491 |

Target: T2, EPHA3_Pkinase__P29320_606_947
Assay: as above
Details: replicate selections in which the peptide was seen: 2

| Binder | mean normalised NGS count |
| --- | --- |
| MAQMAITAAGVAVGSA [CHCHD2P9 56-71 mut Q9Y6H1.T61I] | 0.133 |
| LLQTMLITDTTNLSAL [HNF1A 518-533 mut P20823.P519L] | 0.0528 |
| VVDALLAQGLVVDVPA [INPP5E 488-503 wt] | 0.639 |
| NLYWLVSKLDRLEASS [RYR1 542-557 mut P21817.D544Y] | 0.0383 |
| EVARKLVIIDSDLERA [TPM1 164-179 mut P09493.E173D] | 0.144 |
| MAQMAITAAGVAVGSA [CHCHD10 56-71 mut Q9Y6H1.T61I] | 0.133 |

Target: T4, DOK1_PTB__Q99704_151_256
Assay: as above
Details: replicate selections in which the peptide was seen: 5

| Binder | mean normalised NGS count |
| --- | --- |
| WRELLADGEFTHEMQV [ASXL1 320-335 mut Q8IXJ9.R323L] | 9.86 |
| ALLGGSEIWRDINFAH [TYR 187-202 mut P14679.D199N] | 2.9 |
| VEVFSGDGWNYLLAFQ [WDFY3 2629-2644 mut Q8IZQ1.R2637W] | 0.109 |

Target: T5, EIF3B_RRM__P55884_172_274
Assay: as above
Details: replicate selections in which the peptide was seen: 6

| Binder | mean normalised NGS count |
| --- | --- |
| SMGFSDEGSWLTRLLQ [SQSTM1 403-418 mut Q13501.G411S] | 22 |

Same assay, conditions: replicate selections in which the peptide was seen: 4

| Binder | mean normalised NGS count |
| --- | --- |
| VRNWTDLENSIVSVER [ABCC6 1220-1235 wt] | 0.326 |

These binders were tested against EIF4E_eIF4E__P06730_1_217, P06730 in the same assay as above. Details: replicate selections in which the peptide was seen: 6.
Sequence of EIF4E_eIF4E__P06730_1_217, P06730 (P06730 whole entry): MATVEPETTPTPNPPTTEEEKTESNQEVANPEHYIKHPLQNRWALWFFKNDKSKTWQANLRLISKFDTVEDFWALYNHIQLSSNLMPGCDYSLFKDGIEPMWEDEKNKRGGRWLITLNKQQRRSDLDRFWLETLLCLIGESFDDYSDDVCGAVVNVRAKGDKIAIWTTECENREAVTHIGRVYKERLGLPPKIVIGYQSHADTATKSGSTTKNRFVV

| Binder | mean normalised NGS count |
| --- | --- |
| QVKYLARELIELRNKV [TFG 101-116 mut Q92734.R106C] | 2.37 |
| LESSQVKYLRRELIEL [TFG 97-112 wt] | 70.3 |

Same assay, conditions: replicate selections in which the peptide was seen: 3

| Binder | mean normalised NGS count |
| --- | --- |
| LIRTTFTSAQLKELER [PHOX2B 100-115 mut Q99453.R100L] | 0.0687 |

Target: T3, EPHB2_Pkinase__P29323_604_898
Assay: as above
Details: replicate selections in which the peptide was seen: 2

| Binder | mean normalised NGS count |
| --- | --- |
| WQFFSALFSSSSSPPP [MAPK8IP3 573-588 mut Q9UPT6.R578C] | 1.72 |
| VVDALLAQGLVVDVPA [INPP5E 488-503 wt] | 19 |

Target: T1, EPS15_EH__P42566_121_215
Assay: as above
Details: replicate selections in which the peptide was seen: 3

| Binder | mean normalised NGS count |
| --- | --- |
| GEQNPFLFQEGKLFEM [ANK2 3096-3111 mut Q01484.S3096G] | 0.0121 |
| INSINFDNPFYQKTTE [LDLR 818-833 mut P01130.V827F] | 0.0501 |

What follows are binders tested against EIF4E_eIF4E__P06730_1_217, P06730 in the same assay as above. Details: replicate selections in which the peptide was seen: 2.

| Binder | mean normalised NGS count |
| --- | --- |
| AAADIISSLSEDQVPG [PIEZO2 2216-2231 mut Q9H5I5.T2221I] | 0.0561 |
| LISLPAVPQGGSQPGP [SZT2 1834-1849 mut Q5T011.R1839C] | 0.501 |

Same assay, conditions: replicate selections in which the peptide was seen: 5

| Binder | mean normalised NGS count |
| --- | --- |
| LESSQVKYLARELIEL [TFG 97-112 mut Q92734.R106C] | 3.14 |

Target: T6, IRS2_PTB__Q9Y4H2_188_304
Assay: as above
Details: replicate selections in which the peptide was seen: 4

| Binder | mean normalised NGS count |
| --- | --- |
| VEVFSGDGWNYLLAFQ [WDFY3 2629-2644 mut Q8IZQ1.R2637W] | 21.7 |

Source: the supplement of paper PMC11369174, “Proteome-scale characterisation of motif-based interactome rewiring by disease mutations” (Molecular Systems Biology, 2024)
